Measurements taken from PubChem BioAssay AID624417 (National Center for Advancing Translational Sciences (NCATS), 2012).
The campaign covered roughly 410,000 compounds. About 6,400 (1.6%) were called active. The inconclusive results got no clear call from the source; some entries with a clear call stand among them for comparison. The call rests on the fitted dose curve; in most records, active means well fitted inhibition curve with a large enough effect; inconclusive means small, poorly fitted or top-dose-only effect; inactive means no such curve, though single readings can be large or run the other way. Potencies of inconclusive entries are left out as doubtful fits.

target: Glucagon-like peptide 1 receptor (Homo sapiens) (UniProt P43220); assay: qHTS of GLP-1 Receptor Inverse Agonists (Inhibition Mode); details: HEK293 GLP-1R CRE-luciferase, luminescence, 24 h, GLP-1R form is constitutively active; series mostly up to 38.3 µM; further: nearly all actives have a fitted effect of over 55% in size
In short: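 GLP-1R inverse agonism mode: basal reporter luminescence in engineered HEK293 cells measured after one day of compound exposure at 37 deg C, with a 12 min room-temperature detection step.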
Potency means the concentration at half of the fitted maximal effect; tags describe the fitted curve by direction and shape.

Sequence of UniProt P43220 (P43220 whole entry, looked up): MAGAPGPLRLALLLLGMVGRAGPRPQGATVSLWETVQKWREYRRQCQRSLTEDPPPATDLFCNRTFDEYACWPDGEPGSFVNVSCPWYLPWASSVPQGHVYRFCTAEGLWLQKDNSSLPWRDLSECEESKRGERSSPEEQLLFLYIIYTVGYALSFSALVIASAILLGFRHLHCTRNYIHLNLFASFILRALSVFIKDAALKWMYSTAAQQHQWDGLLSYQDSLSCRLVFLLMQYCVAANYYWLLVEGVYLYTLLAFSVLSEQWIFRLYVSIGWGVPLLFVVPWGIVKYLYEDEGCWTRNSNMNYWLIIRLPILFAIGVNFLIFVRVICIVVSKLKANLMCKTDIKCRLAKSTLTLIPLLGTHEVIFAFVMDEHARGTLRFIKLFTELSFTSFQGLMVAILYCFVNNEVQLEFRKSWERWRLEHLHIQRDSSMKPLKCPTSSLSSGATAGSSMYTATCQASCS

Which Potency does the source give for `Cc1cc(C)n(C(=O)COc2ccccc2[N+](=O)[O-])n1` here?
The Potency was “inactive”.

For `COc1ccc(CNC(=S)N/N=C(\C)c2ccc(OC)cc2)cc1`, which Potency is on record?
Its Potency is inconclusive [inhibitor, single point].

With `CCn1nc(C(C)C)cc1C(=O)N1CCCC(CO)(Cc2ccc(F)cc2F)C1` (centres undefined) as the compound, how does the Potency read?
The Potency was inconclusive [inhibitor, single point].

`O=S(=O)(NC(=S)c1ccccc1)c1ccc(F)cc1` was tested. Which Potency did it give?
The Potency was “inactive”.

With `Cc1ccccc1Nc1nc2ccccc2s1` as the compound, how does the Potency read?
The Potency was active: 11.2 µM.

How did the Potency turn out when `COc1ccc2c(CNCCc3ccccc3OC)c(C(=O)O)n(Cc3ccc(F)cc3Cl)c2c1` was run?
Its Potency is inconclusive [inhibitor, single point].

For `CCOc1ccc2[nH]cc(S(=O)(=O)c3ccc(C)cc3)c(=O)c2c1`, which Potency is on record?
Its Potency is inconclusive [inhibitor, single point].

With `CCCCCC(=O)N1C[C@@H](n2cc(-c3ccc(F)cc3)nn2)[C@H](O)C[C@@H]1c1ccccc1` as the compound, how does the Potency read?
Its Potency is inconclusive [inhibitor, single point].

For `CC1(C(=O)NS(=O)(=O)c2cccc(OC(F)F)c2)CCN1C(=O)COc1ccc(Cl)cc1` (centres undefined), which Potency is on record?
The Potency was “inactive”.

Which Potency does the source give for `Nc1cc(-c2ccc(Br)cc2)nn1S(=O)(=O)c1cccc2nsnc12` here?
Its Potency is inconclusive [inhibitor, single point].

Which Potency does the source give for `Cc1ccc(-n2ncc3c(NNC(=O)c4ccco4)ncnc32)cc1C` here?
Its Potency is inconclusive [inhibitor, single point].

With `Cc1ccc2sc(N(CCCN(C)C)C(=O)c3nc4ccccc4s3)nc2c1C` as the compound, how does the Potency read?
Its Potency is inconclusive [inhibitor, partial curve, poor fit].

Which Potency does the source give for `O=C(COc1cccc(OC(F)F)c1)Nc1ccc(SC(F)F)cc1` here?
The Potency was active: 10 µM.

`Cc1nc(NC(=S)Nc2ccccc2)sc1C` was tested. Which Potency did it give?
The Potency was inconclusive [inhibitor, full curve, poor fit].

With `CC(C)C(=NO)c1ccccc1` as the compound, how does the Potency read?
The Potency was “inactive”.

With `CCC(C)Sc1cccc(-c2nc3cc(C)ccn3c2NCc2ccccc2)c1` (centres undefined) as the compound, how does the Potency read?
Its Potency is inconclusive [inhibitor, single point].

How did the Potency turn out when `C#Cc1ccc(CN2CCC(Oc3ccc(C(=O)NCc4ccccn4)cc3)CC2)cc1` was run?
Its Potency is inconclusive [inhibitor, partial curve, poor fit].

With `CCOc1cccc(C2c3[nH]c4ccccc4c3CCN2C(=O)Cc2cccc(OCC)c2OCC)c1` (centres undefined) as the compound, how does the Potency read?
Its Potency is inconclusive [inhibitor, partial curve, poor fit].

`CC1CCc2nc(NC(=O)Cc3ccc(Cl)cc3)sc2C1` (centres undefined) was tested. Which Potency did it give?
Its Potency is inconclusive [inhibitor, single point].
